According to article PMC4158416:
Where two headings read alike, the source gives them in different places. No constants are given. Whether binding was seen depends on the method and setting. For part of these data: Binding seen in cells or lysates may run through a third protein. Some results given as binding are weak or reduced against the parent protein; the word gives no strength. Tags and fused reporters may be left off the sequences shown. One block for each molecule: values may come before it.

Chains of the proteins cited; added tags and fusions are not shown. Lines headed by an entry give the natural chain unless they say otherwise; changes in a name come on top. Residues count along the entry.
UniProt Q9HC29: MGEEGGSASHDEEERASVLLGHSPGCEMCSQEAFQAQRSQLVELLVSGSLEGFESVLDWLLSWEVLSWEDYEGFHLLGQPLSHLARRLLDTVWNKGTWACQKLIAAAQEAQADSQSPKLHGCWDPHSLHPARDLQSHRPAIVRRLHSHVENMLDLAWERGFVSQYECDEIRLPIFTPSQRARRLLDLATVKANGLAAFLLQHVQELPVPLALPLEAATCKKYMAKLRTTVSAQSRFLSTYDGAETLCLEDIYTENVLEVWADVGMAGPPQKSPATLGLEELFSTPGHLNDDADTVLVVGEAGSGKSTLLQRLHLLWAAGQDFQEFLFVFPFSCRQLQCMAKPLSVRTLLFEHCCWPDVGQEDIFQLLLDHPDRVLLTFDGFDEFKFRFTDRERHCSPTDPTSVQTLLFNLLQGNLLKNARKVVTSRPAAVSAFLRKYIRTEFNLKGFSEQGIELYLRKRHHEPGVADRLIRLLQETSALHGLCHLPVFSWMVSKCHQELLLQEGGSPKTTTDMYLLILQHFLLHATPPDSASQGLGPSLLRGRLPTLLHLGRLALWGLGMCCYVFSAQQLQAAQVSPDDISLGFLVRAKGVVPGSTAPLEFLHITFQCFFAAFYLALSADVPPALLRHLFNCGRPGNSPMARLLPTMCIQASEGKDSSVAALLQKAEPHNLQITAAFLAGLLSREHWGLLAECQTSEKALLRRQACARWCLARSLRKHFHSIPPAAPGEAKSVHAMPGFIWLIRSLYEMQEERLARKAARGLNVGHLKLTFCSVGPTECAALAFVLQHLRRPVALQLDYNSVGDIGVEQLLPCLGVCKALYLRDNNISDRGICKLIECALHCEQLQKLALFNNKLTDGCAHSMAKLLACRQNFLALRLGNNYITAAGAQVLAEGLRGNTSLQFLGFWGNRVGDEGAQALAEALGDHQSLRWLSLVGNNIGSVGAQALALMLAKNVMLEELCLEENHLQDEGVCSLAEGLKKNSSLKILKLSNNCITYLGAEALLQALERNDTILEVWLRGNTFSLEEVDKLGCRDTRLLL
FLAG-NOD2 CARD only construct extended to position 260: residues 1-260 of Q9HC29
FLAG-NOD2 CARD only construct extended to residue 240: residues 1-240 of Q9HC29
FLAG-NOD2 CARD only construct (residues 1–227): residues 1-227 of Q9HC29
15N-labelled human NOD2 (28–218): residues 28-218 of Q9HC29
His6-MBP-NOD2 tandem CARDs (residues 28-215)-FLAG: residues 28-215 of Q9HC29
FLAG-NOD2 274–1040: residues 274-1040 of Q9HC29
His6-MBP-RIP2 CARD (residues 432-534)-FLAG (O43353, residues 432-534): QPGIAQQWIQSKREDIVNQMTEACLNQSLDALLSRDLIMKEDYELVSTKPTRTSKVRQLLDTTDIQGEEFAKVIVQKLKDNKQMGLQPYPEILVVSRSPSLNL
GB1-RIP2–CARD (human) (O43353, residues 432-524): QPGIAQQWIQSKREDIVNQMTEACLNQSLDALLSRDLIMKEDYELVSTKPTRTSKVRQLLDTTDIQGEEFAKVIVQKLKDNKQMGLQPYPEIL

Legend:
[1] = target: T1, His6-MBP-CARD9 CARD (residues 6-100)-FLAG (murine) (UniProt A2AIV8); assay: pull-down; co-sonication pull-down: E. coli cultures with the overexpressed proteins resuspended and combined before sonication (100 mM NaCl, 25 mM sodium phosphate, 20 mM imidazole, 5 mM β-mercaptoethanol, 0.1 % Triton-X100); His-MBP fusion purified on amylose resin; co-purifying protein seen by Coomassie staining after SDS–PAGE
T1 sequence: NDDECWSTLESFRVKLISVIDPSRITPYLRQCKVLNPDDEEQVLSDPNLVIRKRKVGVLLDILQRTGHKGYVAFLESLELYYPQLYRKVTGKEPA

[2] = target: Full-length human NOD2 with an N-terminal FLAG tag (pCMV-FLAG-NOD2) (human) (UniProt Q9HC29); assay: co-IP; HEK 293T co-transfected with FLAG-NOD2 construct and mCARD9-V5, lysed after 24 h in RIPA buffer; anti-FLAG on Protein G Dynabeads; blot with anti-V5
[3] = target: FLAG-NOD2 R702W (full-length, Crohn's Disease associated SNP) (human) (UniProt Q9HC29); assay: as above
[4] = target: FLAG-NOD2 CARD only construct extended to position 260 (human) (UniProt Q9HC29); assay: as above
[5] = target: FLAG-NOD2 CARD only construct (residues 1–227) (human) (UniProt Q9HC29); assay: as above
[6] = target: FLAG-NOD2 CARD only construct extended to residue 240 (human) (UniProt Q9HC29); assay: as above
[7] = target: FLAG-NOD2 274–1040 (human) (UniProt Q9HC29); assay: as above
[8] = target: FLAG-NOD2 R334W (full-length, Blau Syndrome associated SNP) (human) (UniProt Q9HC29); assay: as above
[9] = target: His6-MBP-RIP2 CARD (residues 432-534)-FLAG (human) (UniProt O43353); assay: pull-down; co-sonication pull-down: E. coli cultures with the overexpressed proteins resuspended and combined before sonication (100 mM NaCl, 25 mM sodium phosphate, 20 mM imidazole, 5 mM β-mercaptoethanol, 0.1 % Triton-X100); His-MBP fusion purified on amylose resin; co-purifying protein seen by Coomassie staining after SDS–PAGE
[10] = target: His6-MBP-NOD2 tandem CARDs (residues 28-215)-FLAG (human) (UniProt Q9HC29); assay: as above
[11] = target: T1, His6-MBP-CARD9 CARD (residues 6-100)-FLAG (murine); assay: as above; remark: listed apart in the source
[12] = target: 15N-labelled human NOD2 (28–218) (human) (UniProt Q9HC29); assay: NMR titration; 2D 1H/15N HSQC of 15N-labelled NOD2 (28–218) without and with equimolar (1:1) unlabelled CARD9 CARD; 20 mM sodium phosphate pH 7.1, 100 mM NaCl, 5 mM DTT; 180 μM, 298 K, 600 MHz; both purified

binding [1]: no binding
Molecule: GB1-RIP2–CARD (human) (from UniProt O43353 432-524) (domain or fragment)

binding [2]: binds
binding [3]: binds
binding [4]: binds
binding [5]: no binding
binding [6]: no binding
binding [7]: binds
binding [8]: binds
B1: Full length murine CARD9 with a C-terminal V5-His epitope tag (pEF6-mCARD9-V5) (protein, UniProt A2AIV8 1-536)
chain: MSDYENDDECWSTLESFRVKLISVIDPSRITPYLRQCKVLNPDDEEQVLSDPNLVIRKRKVGVLLDILQRTGHKGYVAFLESLELYYPQLYRKVTGKEPARVFSMIIDASGESGLTQLLMTEVMKLQKKVQDLTALLSSKDDFIKELRVKDSLLRKHQERVQRLKEECELSSAELKRCKDENYELAMCLAHLSEEKGAALMRNRDLQLEVDRLRHSLMKAEDDCKVERKHTLKLRHAMEQRPSQELLWELQQEKDLLQARVQELQVSVQEGKLDRNSPYIQVLEEDWRQALQEHQKQVSTIFSLRKDLRQAETLRARCTEEKEMFELQCLALRKDAKMYKDRIEAILLQMEEVSIERDQAMASREELHAQCTQSFQDKDKLRKLVRELGEKADELQLQLFQTESRLLAAEGRLKQQQLDMLILSSDLEDSSPRNSQELSLPQDLEEDAQLSDKGVLADRESPEQPFMALNKEHLSLTHGMGPSSSEPPEKERRRLKESFENYRRKRALRKMQNSWRQGEGDRGNTTGSDNTDTEGS

binding [9]: no binding
binding [10]: no binding
binding [11]: binds weakly
B2: His-CARD9 CARD (murine, N-terminally 6His tagged, pDEST-17) (domain or fragment, UniProt A2AIV8 6-100)
chain: T1 sequence
binding [12]: no binding (tested: 180 μM, 1:1 equivalents)
